Some of the results follow.
B1: Q9UKT9 (peptide)
chain: FDCNVCGAHFTQKGNLLRHIKL
B2: Q9UKT9 (peptide)
chain: FLCNVCGACFTQKGNLLRHIKL
B3: Q9UKT9 (peptide)
chain: FTCEICGRAFTQKGNLLRHIKL
B4: Q9UKT9 (peptide)
chain: FMCDICGAEFTQKGNLLRHIKL
B5: Q9UKT9 (peptide)
chain: FHCDVCGASFTQKGNLLRHIKL
B6: Q9UKT9 (peptide)
chain: FECPICGAMFTQKGNLLRHIKL
B7: Q9UKT9 (peptide)
chain: LNCNQCGFECTQKGNLLRHIKL
B8: Q9UKT9 (peptide)
chain: FCCNQCGAFFTQKGNLLRHIKL
B9: Q9UKT9 (peptide)
chain: LECNQCGFVCTQKGNLLRHIKL
B10: Q9UKT9 (peptide)
chain: FMCNVCGAPFTQKGNLLRHIKL
B11: Q9UKT9 (peptide)
chain: FSCNQCGARFTQKGNLLRHIKL
B12: Q9UKT9 (peptide)
chain: FRCEQCGANFTQKGNLLRHIKL
B13: Q9UKT9 (peptide)
chain: FKCEICGHDFTQKGNLLRHIKL
B14: Q9UKT9 (peptide)
chain: FSCPICGRMFTQKGNLLRHIKL

Target: no compound (DMSO)
Assay: log2 fold change of degron read counts, EGFP-low vs EGFP+ sorted cells; higher = lower degron-EGFP level without compound (poor expression or instability)
Settings: compound: DMSO control; 18 h
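Also: jurkat cells carrying a lentiviral library of mutant zinc finger degrons fused to EGFP plus mCherry, mCherry+ cells FACS sorted, degron abundance counted by next-generation sequencing.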

| Sequence | log2 fold change of degron read counts |
| --- | --- |
| B1 | -1.92 |
| B2 | -0.413 |
| B3 | -1.95 |
| B4 | -2.43 |
| B5 | -1.56 |
| B6 | -0.623 |
| B7 | -0.454 |
| B8 | -0.249 |
| B9 | -0.879 |
| B10 | -0.325 |
| B11 | 0.321 |
| B12 | -0.892 |
| B13 | -2.22 |
| B14 | -0.0917 |

— the supplement of paper PMC12645437, “Orthogonal IMiD-Degron Pairs Induce Selective Protein Degradation in Cells” (ACS Chemical Biology, 2025)
